Screen size: about 380,000 compounds; about 4,000 (1.1%) were called active. The inconclusive results got no clear call from the source; some entries with a clear call stand among them for comparison. The call rests on the fitted dose curve; in most records, active means well fitted activation curve with a large enough effect; inconclusive means small, poorly fitted or top-dose-only effect; inactive means no such curve, though single readings can be large or run the other way. A potency beside an inconclusive call is a rough fit, not a confirmed value.
experiment: qHTS Assay to Identify Small Molecule Activators of BRCA1 Expression; conditions: MCF7-BRCA1-FFLuc reporter, luminescence, 48 h; activation: at 46.1 µM (top of the series), scaled: vehicle 0%, 10 µM genistein 100% unless noted; further: nearly all actives have a fitted effect of over 80% in size
How it was run: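 48 h compound treatment of MCF7-BRCA1-FFLuc cells (phenol-red free MEM, 37 °C), then 15 min with luciferase substrate and luminescence imaging.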
Potency means the concentration at half of the fitted maximal effect; tags describe the fitted curve by direction and shape.

SMILES	Potency	activation
COc1cccc(C(=O)Nc2nc3c(s2)CN(C)CC3)c1	active: 14.1 µM	
CCCCCCCc1ccc(-c2ccc(O)cc2)nc1	inconclusive: 1.26 µM [activator, full curve, poor fit]	
O=[N+]([O-])c1ccc(/C=C/c2ccncc2)cc1	active: 10 µM	
COc1ccc(C(=O)Nc2ccc3ncccc3c2)cc1		inconclusive: -72.8% [activator]
c1ccc(-c2cn3nc(-c4ccccc4)cnc3n2)cc1	inconclusive: 0.562 µM [activator, full curve, poor fit]	
CCc1ccc(NC(=O)Cn2ncn3c(cc4ccccc43)c2=O)cc1	inactive	
CC(C)C/C=C1\CCc2c([nH]c3ccccc23)C1=O	active: 8.91 µM	
COc1cccc(CNC(=O)C2CCCN(c3nnc(-n4c(C)ccc4C)s3)C2)c1OC (centres undefined)	inactive	
O=C(CSc1nnc(-c2ccncc2)o1)Nc1cccc(F)c1	inconclusive: 31.6 µM [activator, single point]	
Cc1nc(NC(=O)c2ccc3c(c2)OCCO3)ccc1Br	inconclusive: 1 µM [activator, full curve, poor fit]	
COc1ccc(-n2nc(C(=O)NCC(=O)N3CCC(C)CC3)c3ccccc3c2=O)c(OC)c1	inconclusive: 11.2 µM [activator, partial curve, poor fit]	
CSc1ccccc1C(=O)Nc1ccc2c(c1)CCC2	active: 11.2 µM	
C/C(=N\NC(=O)c1c(Br)cnn1C)c1ccc(NC(=O)c2ccc(F)cc2)cc1	active: 7.94 µM	
CC1(c2ccc(O)cc2)NC(=O)N(c2ccccc2)N1 (centres undefined)	inconclusive: 31.6 µM [activator, single point]	
O=C(Nc1ccc2c(c1)CCC2)Nc1ccccc1Cl	inconclusive: 1.26 µM [activator, full curve, poor fit]	
CC1=NN(C(N)=S)C(=O)C1N=Nc1ccc(F)cc1 (centres undefined)	inactive	
Cc1cccc(CSc2cn(CC(=O)N3CCOCC3)c3ccccc23)c1	active: 3.55 µM	
Nc1nc(-c2ccc3ccccc3c2)cs1	inconclusive: 1.78 µM [activator, full curve, poor fit]	
Cc1ccc(N=c2oc3cc(O)ccc3cc2C(N)=O)cc1	inconclusive: 3.98 µM [activator, full curve, poor fit]	
c1ccc2[nH]c(-c3nc4ccccc4[nH]3)nc2c1	inconclusive: 0.631 µM [activator, full curve, poor fit]	
CC(C)Cc1ccc(/C=C/C(=O)N2CCOCC2)cc1	inconclusive: 2.51 µM [activator, full curve, poor fit]	
CN1CCN(C(=O)CCCN2C(=O)/C(=C/c3ccc(Cl)cc3)SC2=S)CC1	inactive	
CN(C)c1ccc(/C=C2\CCc3ccccc32)cc1	inconclusive: 6.31 µM [activator, full curve, poor fit]	
O=C(N/N=C/c1ccc(OC2CSC2)cc1)c1ccccc1	inconclusive: 12.6 µM [activator, partial curve, poor fit]	
CC(=O)NC(=S)Nc1ccc(-c2nc3ccc(C)cc3s2)cc1	inconclusive: 1.41 µM [activator, partial curve, poor fit]	

SMILES	Potency	activation
Cc1csc(NC(=O)c2c(-c3ccccc3)noc2C)n1	inactive	
CN(C)CCN(CC1CCCN(Cc2ccccc2F)C1)C(=O)c1ccc(F)cc1 (centres undefined)	inactive	
CC(C)OCCCn1c(=O)c2ccccc2n2c(CCC(=O)N3CCN(c4ccccn4)CC3)nnc12	inactive	
O=C(Nc1ccc2c(c1)OCO2)c1ccc(COc2ccc3c(c2)CCC3)o1	inconclusive: 2 µM [activator, partial curve, poor fit]	
COc1ccc(N=Nc2cc(C)ccc2O)cc1	inconclusive: 2 µM [activator, partial curve, poor fit]	
Cc1cc(F)ccc1S(=O)(=O)N1CCCOC1CNC(=O)C(=O)NCc1ccccn1 (centres undefined)	inactive	
Cc1cc(C)c(S(=O)(=O)/N=C2\C=C(NS(=O)(=O)c3ccccc3)C(=O)c3ccccc32)c(C)c1	inactive	
Cc1ccc2c(c1)sc[n+]2Cc1ccccc1	inconclusive: 11.2 µM [activator, partial curve, poor fit]	
CC(C)c1ccc(NC(=O)COc2ccccc2)cc1	inconclusive: 12.6 µM [activator, partial curve, poor fit]	
Cc1ccc2oc(C(=O)N(C)Cc3ccon3)c(C)c2c1	active: 8.91 µM	
Cc1ccc(-n2cc3ccc([N+](=O)[O-])cc3n2)cc1	inconclusive: 0.631 µM [activator, full curve, poor fit]	
O=C(/C(=C/O)N=Nc1ccc(Cl)cc1)c1ccncc1	inactive	
C/C(=N\Nc1ccc(C)c(Cl)c1)c1cccnc1	inconclusive: 8.91 µM [activator, partial curve, poor fit]	
Cn1c(SCc2ccccc2)nnc1-c1ccc2c(c1)OCO2	active: 6.31 µM	
O=C1N=C(N2CCCCC2)S/C1=C/C1=Cc2ccccc2OC1	inconclusive: 15.8 µM [activator, single point]	
COc1cc(C)ccc1OCCCOc1ccccc1Br	inconclusive: 22.4 µM [activator, single point]	
Nc1ccc2c(c1)Cc1cc(N)c(Br)cc1-2	inconclusive: 2.51 µM [activator, full curve, poor fit]	
c1ccc(CCn2nnc3ccccc32)cc1	active: 12.6 µM	
C/C(=N\Nc1cccc(C(=O)O)c1)c1cc2ccccc2o1	inconclusive: 12.6 µM [activator, partial curve, poor fit]	
COc1ccc(-c2nnc(SCC(=O)c3cccs3)o2)c(OC)c1	inconclusive: 12.6 µM [activator, single point]	
S=C(NCc1ccco1)Nc1ccc(Cl)cc1Cl	active: 7.94 µM	
CC(=O)NC(=S)Nc1cccc([N+](=O)[O-])c1	inactive	
N/C(=N\OC(=O)Cc1ccccc1)c1ccccn1	inconclusive: 20 µM [activator, single point]	
Cc1ccc2cc(CCNC(=O)c3cccs3)c(=O)[nH]c2c1	inconclusive: 11.2 µM [activator, partial curve, poor fit]	
COc1ccc(NC(=O)c2cc(F)cc(F)c2)cc1Cl	inconclusive: 7.08 µM [activator, partial curve, poor fit]	

SMILES	Potency	activation
CC(C)(C)c1ccc(/C=C/C(=O)Nc2nncs2)cc1	inconclusive: 31.6 µM [activator, single point]	
Cn1cccc1C(=O)OCc1cc(Cl)cc2c1OCOC2	inconclusive: 12.6 µM [activator, partial curve, poor fit]	
Cc1cccc(N/C=C/C(=O)c2ccc(Cl)cc2)c1	inconclusive: 1.26 µM [activator, full curve, poor fit]	
O=C(Nc1ccc2c(c1)CCC2)c1cccc(F)c1	inconclusive: 1.26 µM [activator, full curve, poor fit]	
CCC(O)c1cnc(OCc2ccccc2)nc1OCc1ccccc1 (centres undefined)	inactive	
CCOc1ccc(OCCCC(=O)NNC(=O)c2ccncc2)cc1	inactive	
C[n+]1c(/C=C/c2ccc(F)cc2)ccc2ccccc21	inactive	
Cc1ccc(NC(=O)c2ccc(OC(=O)COc3ccc(Cl)c(C)c3)cc2)cc1	inconclusive: 3.55 µM [activator, full curve, poor fit]	
O=C(NOCc1ccccc1)OCc1ccccc1	active: 11.2 µM	
OC[C@H]1O[C@@H](c2nc(-c3nc(-c4ccc(F)cc4)no3)cs2)[C@H](O)[C@@H]1O	inconclusive: 1.26 µM [activator, partial curve, poor fit]	
COc1cccc(C(=O)NCCC2=CCCCC2)c1OC	inconclusive: 17.8 µM [activator, single point]	
O=C(/C=C/c1ccc(Cl)cc1)NC1CC2CCC1C2 (centres undefined)	inconclusive: 3.55 µM [activator, partial curve, poor fit]	
COc1ccc(OC)c(NC(=O)CSc2nc3n[nH]c(C)c3c(=N)n2-c2cccc(Cl)c2C)c1	inactive	
COc1ccccc1OCCCOc1ccc(C)cc1Br	inconclusive: 11.2 µM [activator, partial curve, poor fit]	
O=C(Nc1cccc(-c2cnc3ccccc3n2)c1)c1ccncc1	inconclusive: 5.01 µM [activator, partial curve, poor fit]	
CC(C)NC(=O)c1cc(-c2ccc(Br)cc2)on1	inconclusive: 2.24 µM [activator, full curve, poor fit]	
COC(=O)c1oc2ccc(OC)cc2c1N	inconclusive: 12.6 µM [activator, single point]	
CCOC(=O)C1CCCN(S(=O)(=O)c2ccc3c(c2)CCN3C(=O)CC)C1 (centres undefined)	inactive	
COc1cc(/C=C2\SC(=S)N(Nc3ccccc3)C2=O)ccc1O	inconclusive: 35.5 µM [activator, single point]	
CC(C)c1cc(CNC(=O)CCc2nnc(CCCc3ccccc3)o2)on1	inconclusive: 35.5 µM [activator, single point]	
CC(=O)C1=C(O)C(=O)N(c2ccc(O)cc2)C1c1cccc(F)c1 (centres undefined)	inactive	
COc1ccc(CNC(=O)CNC(C)c2ccc(F)cc2)cc1 (centres undefined)	inactive	
COc1cc2sc3ccc(C#CC4(O)CCCCC4)cc3c(=O)c2cc1OC	inconclusive: 1 µM [activator, full curve, poor fit]	
COc1ccc(NS(=O)(=O)c2cccc(NC(=O)c3ccc(S(=O)(=O)N4CCCCCC4)cc3)c2)cc1	inactive	
